The full ranking holds about 33,000 sequences; the median of “E-score (-0.5 to 0.5)” is about -0.043, and the highest 2% start at about 0.37. This is one part of the list.
Each sequence was assayed against T1, Upc2 (UniProt Q12151) (assay: PBM E-score (8-mer binding enrichment) (E-score (-0.5 to 0.5)); higher = stronger / more preferred TF binding; most listed sequences are background and not binding sites). Conditions: protein concentration: 200 nM; construct: GST-full length.
T1 sequence: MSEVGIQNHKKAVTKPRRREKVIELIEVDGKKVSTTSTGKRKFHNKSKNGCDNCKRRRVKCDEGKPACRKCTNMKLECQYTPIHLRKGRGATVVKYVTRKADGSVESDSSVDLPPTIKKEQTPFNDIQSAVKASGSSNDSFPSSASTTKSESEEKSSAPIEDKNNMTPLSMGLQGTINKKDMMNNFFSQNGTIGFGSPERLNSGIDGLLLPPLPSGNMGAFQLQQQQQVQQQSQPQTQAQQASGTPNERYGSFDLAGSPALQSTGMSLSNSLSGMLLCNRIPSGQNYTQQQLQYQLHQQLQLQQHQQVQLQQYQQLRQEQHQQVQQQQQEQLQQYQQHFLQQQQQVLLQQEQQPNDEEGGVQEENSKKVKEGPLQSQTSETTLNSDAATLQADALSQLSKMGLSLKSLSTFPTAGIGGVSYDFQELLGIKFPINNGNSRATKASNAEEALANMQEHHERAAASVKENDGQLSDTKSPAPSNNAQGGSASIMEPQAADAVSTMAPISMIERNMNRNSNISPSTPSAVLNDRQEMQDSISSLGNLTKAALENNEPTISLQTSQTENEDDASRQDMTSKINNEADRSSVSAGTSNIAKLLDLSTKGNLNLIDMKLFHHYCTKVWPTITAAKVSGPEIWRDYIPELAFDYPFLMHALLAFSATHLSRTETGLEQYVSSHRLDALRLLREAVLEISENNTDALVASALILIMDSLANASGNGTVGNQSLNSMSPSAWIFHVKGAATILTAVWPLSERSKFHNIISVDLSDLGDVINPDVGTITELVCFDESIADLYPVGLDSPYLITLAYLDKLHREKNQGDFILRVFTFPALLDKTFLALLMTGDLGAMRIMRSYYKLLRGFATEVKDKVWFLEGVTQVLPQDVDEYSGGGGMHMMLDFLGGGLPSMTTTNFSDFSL
In short: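 The E-score, a modified Wilcoxon-Mann-Whitney statistic, was computed by the Universal PBM Analysis Suite for every ungapped eight-base word pooled with its reverse complement. Scans behind it were normalised with masliner after bound GST-tagged yeast transcription factors were detected with fluorescent anti-GST. The proteins, at about 100-200 nM, had been applied to universal all-10-mer Agilent arrays made double-stranded by primer extension.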

Sequence | PBM E-score
TCTAAAGA | -0.125
ATGCGAAT | 0.27
AATAATGA | -0.119
GAAAATGA | -0.0662
CGATAAGC | 0.0703
TGGAGGAA | -0.185
AGATAGGG | -0.167
AGACCAAG | -0.187
GAATGCAA | 0.0555
ACCGGTAC | 0.164
AAGTCATC | 0.00224
AGAAGGCC | 0.0878
AAGAACGG | 0.0306
CTGCCAAA | 0.077
CGATTCTA | 0.0126
AAAAGTCC | -0.104
AGTCCACT | -0.27
AAGAAGGT | -0.0621
CTACCGCC | -0.244
ACGATTAG | 0.303
GTGTTTAA | 0.0238
GCAAAAGA | -0.161
ATAGCCCG | -0.0824
AGGGACTG | -0.415
ATACGCGG | 0.354

Sequence | PBM E-score
CTTCGCTC | 0.208
CTGCCGTC | -0.00574
GAAATCCA | 0.0117
GGTTAATA | -0.0728
CAGCTGGG | -0.0854
CTAACGAA | 0.287
GGGTGAAC | -0.0188
CTGTTCGA | -0.0926
AAGTGATT | -0.0562
ATTCCTCC | -0.173
CTGTTGCC | -0.178
GACTTTTA | -0.119
ATAGACCG | -0.0557
AACGAGTA | 0.437
CGTGGATA | 0.169
ATCCAGTC | -0.12
AAGCGGTC | -0.121
ACGTTCAG | 0.17
GCGGTACA | -0.0545
AGCACACT | -0.00256
AGACTACC | 0.00168
ATCAAACC | -0.0118
GCATAGCC | -0.135
ACAACCCC | -0.0395
GATGGTAC | 0.139

Sequence | PBM E-score
ATCAGATC | -0.278
CAATTGTA | 0.0121
CGTGCAAC | 0.00465
GTCTTAGA | -0.179
GCTGCTAA | -0.105
AATACAGG | 0.0724
AGGCTTAT | -0.251
ATAACGGA | -0.042
ATAGCCTA | -0.0517
CCATTATC | 0.136
CCAGTCCG | -0.13
AACAGATC | 0.107
GTTGGCTA | -0.217
ACGCGCCC | 0.109
GGGTTACC | 0.0304
CATCTGCC | -0.172
TAATCAGA | -0.123
CATTTCAC | -0.116
CTCCGCAC | -0.109
GCCCTCAC | -0.195
CCCCTCCA | -0.141
AGATTCCC | -0.0511
ACGATGGG | 0.298
CTATAACA | -0.265
CCTGGGGC | -0.165

Sequence | PBM E-score
AACTGCTC | -0.109
CGCTCTCC | -0.138
ACATGAAT | -0.0498
AGCTCCTC | -0.292
CCGTGCCC | -0.208
AAACGAGT | 0.477
AACGATGC | 0.352
AGTTTCAA | -0.0446
CTCAATGC | -0.102
ATGTTGAA | 0.0438
CGACTTGC | -0.106
TACAGCTA | -0.051
CGTGAAAC | 0.0416
ACAATGAT | -0.102
GTGAGGAA | -0.13
ACGCAAAT | -0.15
TCCACGAA | 0.0895
GACATTAA | 0.0124
CCCCACGA | -0.151
CATGAGGA | -0.303
ATATAAAC | 0.187
CGCACGGC | -0.197
AGTCGGCC | -0.081
GGGTTTAA | -0.00107
GTTGCGAA | 0.106

Sequence | PBM E-score
TCGGGCAA | -0.0524
AGACAGCG | -0.214
GTCGGTAA | 0.166
ACATTCAG | -0.204
AGCCAGTA | -0.329
AAATAAAA | 0.0557
TAGATATA | 0.142
GAGGAATC | -0.2
AATACAAC | 0.0217
AATAACCA | -0.0566
CTTACCAC | -0.0651
ATGATTAC | -0.0879
AATTTACA | -0.0205
AGTATACG | 0.455
CCCCTTAC | 0.118
CAATAGCA | -0.282
ACTACGCC | -0.23
ATAACATC | 0.0972
GCTTACGA | 0.421
CGTCTCAA | -0.0634
AAAGAAAA | 0.11
GTAATAGA | 0.0805
ATTCTAAC | -0.125
CCCTCCCA | -0.205
AACAAGTA | -0.0163

Sequence | PBM E-score
AACCTCTG | -0.186
TGGCGCCA | -0.211
ACTGGGTC | -0.239
GGAAAGAA | -0.173
ATGGTATA | 0.152
TGCGCCAA | -0.122
CGGGGTCA | 0.117
CCTGGGAC | -0.25
AGTACGCG | 0.189
GACTCGGC | -0.101
GCGTAATA | 0.0953
TATCCCCA | -0.177
GAATAGTC | 0.017
GTTCAATA | 0.0787
AAGATCCA | -0.168
CTTTCTTA | 0.107
CTTCCGGA | -0.31
GTAAACAA | 0.234
CGCCATCC | -0.14
ATGGGAAA | -0.284
CACTCCAA | -0.115
CAAAAGTC | -0.0795
ATAGCTCC | -0.127
GCTATACA | 0.0981
ACCATAGT | -0.167

Sequence | PBM E-score
GTGTCTTA | -0.0182
GCACCAGA | -0.23
AGCCGCAA | -0.231
CCGCTTTC | -0.0566
ACAATAAT | 0.0963
CGACCTCG | 0.161
TCACGAGA | 0.0145
ACTGAAGC | -0.0751
CACTCCTG | -0.303
GCGTTAGA | 0.00044
AATTAACG | 0.272
ATTACCTC | 0.0878
AACGCGAC | 0.161
ATGCAAAG | -0.0684
GGGCTTCA | -0.206
ATAGTCAG | 0.0208
CAAACGCG | 0.294
ATCTGGTC | -0.246
TGATGCAA | 0.0449
GACAAACA | -0.0624
TGCCGACA | 0.0272
CCATTGTA | 0.0132
TACAAGCA | -0.0261
AATGCACT | -0.0453
ACGTATAT | 0.404

Sequence | PBM E-score
CCCGAAAC | 0.212
ATGATAGC | 0.0555
GAAAGTCA | 0.0886
AAAGCCCA | 0.0158
AAGAATTA | -0.0509
ACCCGGAA | -0.0434
CTGAAGGC | -0.226
GTCTAGAA | -0.0707
TATTTAGA | -0.0346
CATCCCCG | -0.0157
CAAAATTC | 0.151
GGCCTTAC | 0.0457
CGGGCGGA | -0.229
AAAGATAA | 0.0111
CTTATCAC | 0.0559
GGATGCGA | 0.166
AGGAAACT | -0.334
ACCCTATA | 0.0801
ATTCCATC | 0.0445
CTACAGGA | -0.115
AAATGATC | -0.0667
CGGGCTCC | -0.15
CAGGACCG | -0.105
ACGTTTAG | 0.397
GCCAATTA | -0.0632

Sequence | PBM E-score
CGTGTGTC | 0.125
ATGCTTCG | 0.247
ACAGGATC | -0.233
CCCAATTA | -0.178
CCACATGA | -0.277
GAAGTGAC | -0.0192
CGAAGGGC | -0.0288
CTCACGTC | -0.0385
CGGGACTA | -0.294
GAAACGAA | 0.41
AAAATATG | 0.0278
CTAAGTGC | -0.107
CCATAGGG | -0.24
AGATGATC | 0.0391
GTCTGCGA | -0.0756
AGTCGTCG | 0.0489
TGCAAGCA | -0.165
CGTCATTC | -0.0253
ACCAGCTA | -0.0512

Reference: the supplement of paper PMC3334620
